The other results are listed elsewhere or left out. At the low end of the ranking the order means little.

The target of this assay is T1, GST-Rok-C97-191 (UniProt O34857).
T1 sequence: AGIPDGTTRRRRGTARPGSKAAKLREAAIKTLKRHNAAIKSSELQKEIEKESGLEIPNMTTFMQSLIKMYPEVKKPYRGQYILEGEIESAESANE
Nature of the assay: protein binding microarray.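 Also: rank score from −0.5 (least bound) to 0.5 (best bound).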 Particulars: Rok is a gene silencer of Bacillus subtilis; high values mean tight binding; most listed sequences are background and not binding sites; double strand, one strand shown.
In turn, ACAGTGAT gave a binding signal of -0.0197 E-score. The same measure for AATGATGC: 0.103 E-score. Then AAGGACGA, with -0.197 E-score. GGCAGCGA: the binding signal was -0.113 E-score. Then AGCACCCC, with -0.142 E-score; and GACACCTA, with -0.0195 E-score. The same measure for AGACTACC: 0.268 E-score. Then AATAGGAC, with 0.0906 E-score; and CAGCACTC, with -0.0949 E-score.

ACTGACCT gave a binding signal of 0.149 E-score.

With CTAGCTAG, the binding signal was found to be 0.294 E-score. The same measure for ACTTGATG: -0.0365 E-score; for AGCGGGGG: -0.349 E-score. The same measure for TGGAACCA: -0.321 E-score. The same measure for ACAAGAAA: -0.0035 E-score; for AGAAGATG: 0.105 E-score.

For GGTCTGAC, the binding signal is -0.279 E-score. Then AGGTCCGA, with -0.0779 E-score; and GAAACATC, with -0.124 E-score; and ACATATCA, with 0.168 E-score.

For the sequence CAAAGTCG, the binding signal was -0.0351 E-score.

ATAAAGTG returned a binding signal of -0.151 E-score. Then CGTAAATA, with 0.254 E-score; and GACACCAC, with -0.0899 E-score; and CCTGCTCG, with -0.226 E-score. The same measure for ACTTTGAT: -0.0076 E-score; for AGAGGGGA: -0.215 E-score; for TAGATTAA: 0.268 E-score. Sequence AGTACAGA showed a binding signal of -0.062 E-score.

The sequence AGAGAGTC gave a binding signal of -0.251 E-score. TAACTATA yielded a binding signal of 0.347 E-score. Then CTCCGGCA, with -0.0967 E-score; and ATCCGTCA, with -0.0325 E-score. ACCGTTGC returned a binding signal of 0.0436 E-score. Then GCAGCTCA, with -0.0554 E-score; and CCTTCACC, with -0.118 E-score; and CACACACG, with -0.0575 E-score.

CTAACCAC: the binding signal was -0.163 E-score. The same measure for CACATTTA: 0.195 E-score; for CAGACCTA: 0.0329 E-score. Then CCTTCTAA, with -0.14 E-score. The same measure for GAACGGAA: -0.204 E-score; for ATCAAGCA: 0.00395 E-score; for GTCAAGGA: -0.129 E-score.

CCGGTGGA: the binding signal is -0.145 E-score. Then AACTGAGA, with -0.1 E-score; and GGAGGCGA, with -0.221 E-score; and GCAAGGCC, with -0.283 E-score.

As for GGATATCA, the binding signal stood at 0.125 E-score. For the sequence GGGAGACC, the binding signal is -0.227 E-score. The same measure for ATTTTTGC: -0.0684 E-score; for GACTACAA: -0.00391 E-score; for AGTTAACA: 0.122 E-score. The same measure for CGCCTATC: -0.0928 E-score; for CGTAGGCA: -0.0837 E-score. The sequence AGTTGATC registered a binding signal of 0.09 E-score.

For AGGATGAT, the binding signal was -0.0352 E-score.

Consider CCGCGGCG, for which the binding signal is -0.231 E-score. Then CAGGTGCC, with -0.177 E-score; and AAGCTTTC, with -0.103 E-score; and AACGGAGT, with -0.111 E-score. The same measure for TATATTCA: 0.264 E-score.

AGTTTTAC: the binding signal is 0.292 E-score. AGGGGAGA gave a binding signal of -0.228 E-score. Then AGCTTAGA, with -0.069 E-score; and CAACGATA, with 0.206 E-score; and CATGCGTC, with 0.00833 E-score.

In turn, AGATCTTC had a binding signal of 0.0644 E-score. The same measure for AGTTGCAC: 0.09 E-score; for CGTGATTC: -0.0211 E-score. Then GGAATCCA, with -0.132 E-score. Then AGTCTCGC, with -0.0929 E-score; and CGTCCCAA, with -0.181 E-score; and ATGCTCCC, with -0.193 E-score. The sequence GGTCTACA returned a binding signal of 0.0204 E-score. With CTCTGACA, the binding signal was -0.113 E-score.

For CGCTCCCC, the binding signal was -0.266 E-score.

On to GAGGGCAA, for which the binding signal was -0.328 E-score. The same measure for ACCTCTAA: -0.0561 E-score. Then CGACCACG, with -0.251 E-score.

On to CAGAGCAC, for which the binding signal is -0.219 E-score. Then GCCCCATA, with 0.111 E-score; and TACGCAAA, with 0.196 E-score; and CGCTCGTC, with -0.243 E-score. For AACCGGAG, the binding signal was -0.22 E-score. Then ACGATAAT, with 0.15 E-score. Then ATTCGATA, with 0.205 E-score.

In the case of AGTAAATC, the binding signal was determined as 0.215 E-score.

Sequence ACAGACAC registered a binding signal of -0.0243 E-score. For the sequence ATCACAGA, the binding signal is -0.0434 E-score.

Sequence ACTACGTA showed a binding signal of 0.277 E-score. The same measure for TCGGGCCA: -0.12 E-score; for ATCTTGCC: -0.00252 E-score. CACAAGAG: the binding signal is -0.00599 E-score. The same measure for GTTGATAA: 0.0851 E-score. The same measure for ATTTATTA: 0.306 E-score; for CGAGCGCC: -0.388 E-score; for CATGAGAA: 0.219 E-score.

Turning to CCTGTTAA, the binding signal is -0.159 E-score.

The sequence CCCAGAAG gave a binding signal of -0.158 E-score.

CCCCTAAG yielded a binding signal of -0.26 E-score. The same measure for GCGATCAC: 0.00148 E-score. Then GGTGAAAC, with -0.0397 E-score; and AGTAAAAT, with 0.329 E-score; and ATGACTAA, with 0.151 E-score. The same measure for GAATGCCC: -0.13 E-score. In turn, ACCCCAGA registered a binding signal of -0.19 E-score. Consider TCGATCCA, for which the binding signal is -0.0554 E-score. The same measure for ACCTTCAG: -0.101 E-score; for CAACCTGA: -0.0116 E-score; for TCCACGGA: -0.157 E-score.

Sequence GTACACTA yielded a binding signal of 0.196 E-score.

For the sequence ATTAACGA, the binding signal is 0.166 E-score. TCCCCACA gave a binding signal of -0.206 E-score. CAGTAATG registered a binding signal of -0.0082 E-score. Then ATGTATCA, with 0.301 E-score; and GTCTCTAA, with -0.0333 E-score. The same measure for CTCGCTCC: -0.141 E-score; for ATCCCGAT: 0.0988 E-score. TGGCATAA had a binding signal of 0.0295 E-score. Sequence CTCTCTGA came in with a binding signal of -0.168 E-score. The same measure for ACCGGGCG: -0.311 E-score.

Sequence ACTTTATG came in with a binding signal of 0.0912 E-score.

The sequence AATTCCGG registered a binding signal of -0.0116 E-score. For the sequence CATTATAG, the binding signal worked out at 0.147 E-score. The same measure for CGCGGAGC: -0.178 E-score. The same measure for CCAATCCG: -0.045 E-score. The same measure for AGGCATGC: -0.15 E-score; for CATTCTCG: -0.101 E-score.

AGAGTCCC: the binding signal was -0.226 E-score.

As to CATAAGAG, the binding signal was -0.00754 E-score.

The sequence AAGGCTCT returned a binding signal of -0.246 E-score. The same measure for ATTACTTG: 0.121 E-score; for AGTGAATG: -0.088 E-score. The same measure for GTTCAAGA: -0.149 E-score. Then GTCCAGAC, with -0.154 E-score; and ATCTCATC, with 0.161 E-score; and CCTAACTA, with 0.225 E-score. In turn, AATGAAAG showed a binding signal of -0.0213 E-score. The sequence CTCCGGCC returned a binding signal of -0.148 E-score. ATACGGCA yielded a binding signal of 0.169 E-score. The same measure for ACGCAGAT: -0.0111 E-score. Then CTCTTACC, with -0.0309 E-score. GACCCGGA gave a binding signal of -0.052 E-score. Then ACTACGCT, with 0.162 E-score. The same measure for ATACTAAA: 0.39 E-score; for AGTTCCTG: 0.0183 E-score. Then ATATATGC, with 0.256 E-score. The sequence CGGTAGGA showed a binding signal of 0.277 E-score. The same measure for GAATACAC: 0.109 E-score. The same measure for GGGCCTAA: -0.138 E-score; for CCAGAGTC: -0.212 E-score; for CTTGCAAC: -0.0134 E-score. The same measure for TAATAACA: 0.191 E-score; for ATTTTGGG: 0.0112 E-score; for GCTGGGCA: -0.293 E-score. With GTGGAAGA, the binding signal is -0.235 E-score. Then GCGGCCCC, with -0.45 E-score; and ACATTATC, with 0.238 E-score. The same measure for CAATGCTG: -0.134 E-score; for AACGTACA: 0.0722 E-score; for CCCTTGTC: -0.256 E-score. Sequence TAGGCACA registered a binding signal of 0.0797 E-score. The same measure for GCCTCCCC: -0.175 E-score; for ATACTGAC: 0.0391 E-score.

With AATTCCGC, the binding signal was found to be 0.167 E-score. On to GACTCACA, for which the binding signal is -0.000705 E-score. Then ACCGCCTC, with -0.191 E-score. The same measure for GAGCAGGC: -0.0284 E-score; for AGGTTTAT: 0.00738 E-score; for GGCGCCCC: -0.295 E-score.

With CCCTGAGG, the binding signal was -0.336 E-score.

Values taken from article PMC6212790.
